In PubChem BioAssay AID493208 (National Center for Advancing Translational Sciences (NCATS), 2011):
Screen size: about 44,000 compounds; about 340 (0.77%) were called active. About 5% were inconclusive and are not listed. The call rests on the fitted dose curve; in most records, active means well fitted inhibition curve with a large enough effect; inconclusive means small, poorly fitted or top-dose-only effect; inactive means flat fitted curve, though single readings scatter. The list shows a part of the results.

assay: Acumen qHTS Assay for Inhibitors of the mTORC1 Signaling Pathway in MEF (Tsc2-/-, p53-/-) Cells: Sytravon; conditions: phospho-rpS6 immunofluorescence/PI, 24 h; series mostly up to 38.3 µM; activity change, negative = inhibition: at the top concentration; further: nearly all actives have a fitted effect of over 50% in size;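 on activity change, negative = inhibition: plate controls were DMSO for no effect and rapamycin for full effect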
Summary of the method: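 Immunofluorescence of rpS6 phosphorylation in Tsc2-/-, p53-/- MEFs after 24 h compound exposure, normalized to propidium iodide signal. Activity is expressed as % positive cells, thresholded with 7.5 nM rapamycin.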
Potency means the concentration at half of the fitted maximal effect.

Compound	activity change, negative = inhibition	Potency
Cc1cc(C)c(NC(=O)Cc2ccc(-n3c(C)nc4cccnc43)cc2)c(C)c1	inactive: -7.38%	–
COc1ccc(CNC(=O)CS(=O)(=O)c2cccc3nsnc23)cc1	inactive: 0.29%	–
Cc1ccc(OC(=O)CSc2nnc(-c3cccs3)o2)c(C)c1	inactive: -1.94%	–
COc1ccc(Cl)cc1C(=O)NCc1nc(-c2cccc(C)c2)no1	inactive: 4.63%	–
O=C(c1ccc([N+](=O)[O-])cc1)N1c2ncnn2C2(CCCCC2)[C@@H]2CCCC[C@@H]21	inactive: 0%	–
CC1=C(C(=O)OC2CCCCCC2)C(c2ccc(Cl)cc2)CC(=O)N1 (stereo unspecified)	inactive: -16%	–
Cc1ccc2nc(-c3ccco3)c(Nc3ccc4c(c3)OCCO4)n2c1	inactive: -6.31%	–
CC(=O)Nc1ccc(NC(=O)C2Cc3ccccc3N2C(=O)c2ccccc2)cc1 (stereo unspecified)	inactive: 4.4%	–
COc1ccc(Cn2c(CCC(=O)Nc3ccccc3OC)nc3cccnc32)cc1	inactive: -16.7%	–
COc1cccc2[nH]c(C(=O)NCc3ccc4c(c3)CCN4C(=O)c3ccc(F)cc3)cc12	inactive: -23.3%	–
COc1ccc(CNC(=O)c2ccc(-c3nc(CS(=O)c4ccc(C)cc4)c(C)o3)cc2)cc1 (stereo unspecified)	inactive: -14.5%	–
CC(C)OCCCn1c(=O)c2ccccc2n2c(-c3ccccc3F)nnc12	inactive: -8.02%	–
Cc1oc2ccc(O)c(CN3CCCC(C)C3)c2c1C(=O)Nc1ccccc1 (stereo unspecified)	–	active: 14.7 µM
COc1ccc2c(c1)c(=O)c(C(=O)c1ccc(Cl)cc1)cn2CC(=O)Nc1ccc2c(c1)OCCO2	inactive: 1.13%	–
O=C(CSc1cn(CCNC(=O)c2c(F)cccc2F)c2ccccc12)Nc1ccccc1F	inactive: -2.48%	–
Cc1ccc2nc(-c3c[nH]c4ccccc34)c(Nc3ccc(F)cc3)n2c1	inactive: -4.52%	–
Cc1ccc(CNC(=O)C(C)n2c(=O)cc(-c3ccccc3)c3c(C)nn(C)c32)cc1 (stereo unspecified)	inactive: -4.74%	–
O=C(CCS(=O)(=O)c1cccc2nonc12)Nc1ccc(F)cc1F	inactive: -4.27%	–
Cc1oc(-c2ccccc2Cl)nc1CSc1nncn2c1cc1occc12	inactive: -1.61%	–
COc1ccc(Br)cc1CNC(=O)Cn1ncn2nc(-c3cccs3)cc2c1=O	inactive: -0.0839%	–
COc1ccc2c(Sc3ccccc3)c(C(=O)NCc3cc(Br)ccc3OC)[nH]c2c1	inactive: -4.1%	–

Compound	activity change, negative = inhibition	Potency
Cc1ccc(OCC(=O)Nc2nc(-c3ccc(Br)cc3)ns2)cc1	inactive: -0.876%	–
COc1ccccc1CNC(=O)c1ccc(CSc2nc3ccncc3n2Cc2cccc(F)c2)cc1	inactive: 0.691%	–
O=C(NCCc1ccc(F)cc1)C(=O)NCC(c1cccs1)S(=O)(=O)c1ccccc1 (stereo unspecified)	inactive: -21.9%	–
O=C(CC(c1cccs1)N1Cc2ccccc2C1=O)Nc1cccc(F)c1 (stereo unspecified)	inactive: 0%	–
CCCn1ccc2c(OCC(=O)Nc3ccc(OC)c(OC)c3)cccc2c1=O	inactive: -0.354%	–
CCOc1ccccc1CNc1nc2nc(C)c(CC(=O)OC)c(=O)n2[nH]1	inactive: -3.26%	–
Cc1cccc(-c2nc(C)c(CCNC(=O)C(=O)Nc3ccc(C)c(C)c3)s2)c1	inactive: 0.107%	–
O=C(CSc1nc(=O)[nH]c2c1CCC2)NCc1ccc(F)cc1	inactive: -11.2%	–
COc1ccc(Cl)cc1S(=O)(=O)N1CCN(C(=O)c2cc(-c3ccc(Br)cc3)n[nH]2)CC1	inactive: -15%	–
Cc1ccc(-n2ncc3c(N4CCN(Cc5ccccc5)CC4)ncnc32)cc1	inactive: 0.128%	–
Cc1cccc(C(=O)Nc2ccc(S(=O)(=O)N3CCCCC3c3cccnc3)cc2)c1 (stereo unspecified)	inactive: -1.29%	–
CCOc1ccc(NC(=O)c2oc3ccccc3c2NC(=O)Cc2cccc(C)c2)cc1	inactive: 3.81%	–
COc1ccc(OC)c(NS(=O)(=O)c2ccc(Br)s2)c1	inactive: -7.24%	–
CC(C)c1ccc(NC(=O)CCNS(=O)(=O)c2cccc3nsnc23)cc1	inactive: -0.495%	–
CN1CCN(CCC(=O)Nc2ccc(Cl)cc2)CC1	inactive: -4.82%	–
COc1ccc(C(=O)Oc2ccc(C(c3c(C)[nH][nH]c3=O)c3c(C)[nH][nH]c3=O)cc2OC)cc1	inactive: -3.06%	–
Cc1ccc(NC(=O)Cn2c(=O)ccc3cc(S(=O)(=O)N4CCC(C)CC4)ccc32)cc1C	inactive: -2.36%	–
CCCN1C(C(=O)c2ccccc2)=C(OC(=O)c2ccc(C)cc2)c2ccccc2S1(=O)=O	inactive: 3.52%	–
Cc1cccc(NC(=O)CSc2nc(=O)n(Cc3cccnc3)c3c2CCC3)c1	inactive: -4.99%	–
COc1ccc(NC(=O)c2c(C)oc3ccc(O)c(CN4CCOCC4)c23)cc1	inactive: 6.28%	–
O=C(COc1ccc(Cl)cc1)NCCc1csc(-c2cccc(F)c2)n1	inactive: 1.67%	–

Compound	activity change, negative = inhibition	Potency
COc1cc(NC(=O)c2ncn(-c3ccccc3)n2)cc(OC)c1	inactive: -10.3%	–
Cn1ncc(C(=O)N2CCN(c3ccccc3F)CC2)c1C1CCN(C(=O)OC(C)(C)C)CC1	inactive: 4.08%	–
CC(=O)c1ccc(NC(=O)CSc2nccn2Cc2ccc3c(c2)OCO3)cc1	inactive: -11%	–
Cc1cc(SCC(=O)NCc2ccc(F)cc2)nc(=O)[nH]1	inactive: 0.699%	–
CCCCN(CC)CCCNC(=O)c1cn(CC)c2ccc(S(=O)(=O)N3CCOCC3)cc2c1=O	inactive: -13.9%	–
O=C(COCc1cc(-c2ccco2)on1)Nc1cccc(Cl)c1Cl	inactive: -9.37%	–
COc1ccc(C2N3CC4(C)CN2CC(c2ccccc2)(C3)C4=O)cc1 (stereo unspecified)	inactive: 1.25%	–
CCOc1ccccc1-n1nnc(S(=O)(=O)c2ccc(C)cc2)c1N	inactive: -9.27%	–
CCOc1ccc(NC(=O)CN2CCN(c3ccc(Cl)cc3)CC2)cc1	inactive: 10.8%	–
O=C(c1cc(F)cc(F)c1)N1CCC(c2nc(-c3ccc(S(=O)(=O)N4CCCC4)cc3)no2)CC1	inactive: -3.69%	–
COc1ccc(OC)c(CCNC(=O)c2cc3c(=O)n(C)c4ccccc4c3n2C)c1	inactive: 1.97%	–
COc1ccc(CN(C(=O)Cc2coc3ccc(C)cc23)C2CCS(=O)(=O)C2)cc1 (stereo unspecified)	inactive: -8.72%	–
CCOC(=O)c1cccc(NC(=O)C2CCCN(S(=O)(=O)c3cc(Br)cc4c3N(C(=O)CC)CC4)C2)c1 (stereo unspecified)	inactive: -3.03%	–
CCc1cccc(NC(=O)CCN2C(=O)c3ccccc3Sc3ncccc32)c1	inactive: -14.7%	–
COc1cc(Cl)c(C)cc1NC(=O)c1cc2c(s1)-c1c(C)cccc1OC2	inactive: -8.63%	–
O=C(Cn1c(=O)nc(-c2ccccc2)c2cc(Cl)ccc21)NCCc1ccccc1	inactive: 10.2%	–
CCc1nn(CC(=O)N2CCN(c3cccc(C)c3C)CC2)c(=O)c2cc3sccc3n12	inactive: 0.845%	–
CCC(=O)N1CCc2cc(S(=O)(=O)NC(CC(C)C)C(=O)NCc3ccc(C)cc3)ccc21 (stereo unspecified)	inactive: -18.2%	–
Cc1ccc(O)c(-c2n[nH]c3c2C(c2ccccc2F)N(Cc2ccco2)C3=O)c1 (stereo unspecified)	inactive: -3.32%	–
